Results are given in words; binding and its absence hold for the method and conditions named. Binding seen in cells or lysates may run through a third protein. Some results given as binding are weak or reduced against the parent protein; the word gives no strength. For some of these results: Sequences can lack the tags named with a protein. One block for each binder: values may come before it.
Assays:
[1] = molecular target: T1, cCFP–CIB1 (C-terminal half of CFP fused to CIB1) (Arabidopsis thaliana) (UniProt Q8GY61); test: split reporter; BiFC with cCFP and nYFP fusions co-expressed in N. benthamiana leaf epidermal cells by Agrobacterium infiltration; plants left in continuous white light for 3 days
T1 sequence: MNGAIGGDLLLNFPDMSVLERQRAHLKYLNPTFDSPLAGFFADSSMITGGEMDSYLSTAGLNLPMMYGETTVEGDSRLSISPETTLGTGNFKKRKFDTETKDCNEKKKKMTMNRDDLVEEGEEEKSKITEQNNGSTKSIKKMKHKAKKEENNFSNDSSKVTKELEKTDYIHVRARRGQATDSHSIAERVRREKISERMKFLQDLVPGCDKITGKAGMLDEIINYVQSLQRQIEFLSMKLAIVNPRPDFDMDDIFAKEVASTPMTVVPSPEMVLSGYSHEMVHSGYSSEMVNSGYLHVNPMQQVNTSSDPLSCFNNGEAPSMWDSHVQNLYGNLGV

By UniProt entry, the sequences of proteins in these tests, tags left out.
UniProt Q96524: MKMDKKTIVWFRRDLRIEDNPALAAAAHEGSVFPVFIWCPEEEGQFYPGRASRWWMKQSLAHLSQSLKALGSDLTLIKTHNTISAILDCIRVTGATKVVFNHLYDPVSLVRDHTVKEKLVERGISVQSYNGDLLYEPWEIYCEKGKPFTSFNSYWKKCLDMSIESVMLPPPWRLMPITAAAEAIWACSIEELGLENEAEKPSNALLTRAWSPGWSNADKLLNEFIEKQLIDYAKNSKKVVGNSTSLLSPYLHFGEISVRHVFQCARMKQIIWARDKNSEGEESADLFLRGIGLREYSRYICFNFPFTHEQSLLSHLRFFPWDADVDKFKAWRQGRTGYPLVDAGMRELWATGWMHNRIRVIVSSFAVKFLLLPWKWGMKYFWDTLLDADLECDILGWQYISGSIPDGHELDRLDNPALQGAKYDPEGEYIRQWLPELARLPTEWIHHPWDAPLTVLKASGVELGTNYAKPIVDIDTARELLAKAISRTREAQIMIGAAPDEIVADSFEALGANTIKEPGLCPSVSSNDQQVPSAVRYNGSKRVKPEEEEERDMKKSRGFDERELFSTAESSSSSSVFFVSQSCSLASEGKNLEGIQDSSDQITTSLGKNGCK

[2] = molecular target: Arabidopsis thaliana cryptochrome 2 (CRY2), expressed and purified from insect cells (Arabidopsis thaliana) (UniProt Q96524); test: pull-down; CRY2 purified from insect cells incubated with S35-labelled CIB proteins from in vitro transcription/translation (TnT, Promega); complexes pulled down with Ni-affinity beads; only the target purified
[3] = molecular target: CRY2, endogenous in Arabidopsis seedlings (Arabidopsis thaliana (endogenous in seedlings)) (UniProt Q96524); test: co-IP; 12-day-old 35S::Myc-CIB5 seedlings grown in continuous red light, MG132 for 3 hour, exposed to red light for 20 min; anti-CRY2-IgG-coupled protein-A Sepharose, 4°C; blot with anti-Myc
[4] = molecular target: CRY2, endogenous in Arabidopsis seedlings (Arabidopsis thaliana (endogenous in seedlings)) (UniProt Q96524); test: co-IP; 12-day-old 35S::Myc-CIB5 seedlings grown in continuous red light, MG132 for 3 hour, exposed to white light or blue light (20 µmol m-2 s-1) for 20 min; anti-CRY2-IgG-coupled protein-A Sepharose, 4°C, 20 mM HEPES pH 7.5, 40 mM KCl, 1 mM EDTA, 1% Triton X-100; blot with anti-Myc
[5] = molecular target: cCFP–CRY2 (C-terminal half of CFP fused to CRY2) (Arabidopsis thaliana) (UniProt Q96524); test: split reporter; BiFC with cCFP and nYFP fusions co-expressed in N. benthamiana leaf epidermal cells by Agrobacterium infiltration; plants left in continuous white light for 3 days

B1: nYFP–CIB1 (N-terminal half of YFP fused to CIB1) (protein, UniProt Q8GY61 1-335)
chain: T1 sequence
binding [1]: binds

B2: CIB3 (At3g07340), S35-labelled, in vitro translated (protein, UniProt Q9SRT2 1-456)
chain: MENELFMNAGVSHPPVMTSPSSSSAMLKWVSMETQPVDPSLSRNLFWEKSTEQSIFDSALSSLVSSPTPSNSNFSVGGVGGENVIMRELIGKLGNIGDIYGITASNGNSCYATPMSSPPPGSMMETKTTTPMAELSGDPGFAERAARFSCFGSRSFNSRTNSPFPINNEPPITTNEKMPRVSSSPVFKPLASHVPAGESSGELSRKRKTKSKQNSPSAVSSSKEIEEKEDSDPKRCKKSEENGDKTKSIDPYKDYIHVRARRGQATDSHSLAERVRREKISERMKLLQDLVPGCNKVTGKALMLDEIINYVQSLQRQVEFLSMKLSSVNTRLDFNMDALLSKDIFPSSNNLMHHQQVLQLDSSAETLLGDHHNKNLQLNPDISSNNVINPLETSETRSFISHLPTLAHFTDSISQYSTFSEDDLHSIIHMGFAQNRLQELNQGSSNQVPSHMKAEL
modifications: S35 labelled
binding [2]: binds

B4: Myc-CIB5, in transgenic Arabidopsis seedlings (35S::MycCIB5) (protein, UniProt Q9C670 1-390)
chain: MSDKDEFAAKKKDLVNTPVDLYPPENPMLGPSPMMDSFRETLWHDGGFNVHTDADTSFRGNNNIDIPLEMGWNMAQFPADSGFIERAAKFSFFGCGEMMMNQQQSSLGVPDSTGLFLQDTQIPSGSKLDNGPLTDASKLVKERSINNVSEDSQSSGGNGHDDAKCGQTSSKGFSSKKRKRIGKDCEEEEDKKQKDEQSPTSNANKTNSEKQPSDSLKDGYIHMRARRGQATNSHSLAERVRREKISERMKFLQDLVPGCDKVTGKAVMLDEIINYVQSLQCQIEFLSMKLSAVNPVLDFNLESLLAKDALQSSAPTFPHNMSMLYPPVSYLSQTGFMQPNISSMSLLSGGLKRQETHGYESDHHNLVHMNHETGTAPDHEDTTADMKVEP
binding [3]: no binding (condition: red light (no blue light)) | binding [4]: binds

B6: CIB5 (At1g26260), S35-labelled, in vitro translated (protein, UniProt Q9C670 1-390)
chain: B4 chain
modifications: S35 labelled
binding [2]: binds

B8: nYFP-CIB2 (N-terminal half of YFP fused to CIB2) (protein, UniProt Q9FJL4 1-498)
chain: MDNELFMNTEFPPPPEMATHFEHQQSSSSAMMLNWALMDPNPHQDSSFLWEKSTEQQQQQSIFDSALSSLVSSPTPSNSNFSGGGGDGFLIRELIGKLGNIGNNNNNSGEIYGTPMSRSASCYATPMSSPPPPTNSNSQMMMNRTTPLTEFSADPGFAERAARFSCFGSRSFNGRTNTNLPINNGNNMVNNSGKLTRVSSTPALKALVSPEVTPGGEFSRKRKSVPKGKSKENPISTASPSPSFSKTAEKNGGKGGSKSSEEKGGKRRREEEDDEEEEGEGEGNKSNNTKPPEPPKDYIHVRARRGQATDSHSLAERVRREKIGERMKLLQDLVPGCNKVTGKALMLDEIINYVQSLQRQVEFLSMKLSSVNDTRLDFNVDALVSKDVMIPSSNNRLHEEGLQSKSSSHHHQQQLNIYNNNSQLLPNISSNNMMLQSPMNSLETSTLARSFTHLPTLTQFTDSISQYQMFSEEDLQSIVGMGVAENPNNESQHMKIEL
binding [1]: binds | binding [5]: binds

B9: CIL2 (At3g23690; CIB1 Like protein), S35-labelled, in vitro translated (protein, UniProt Q9LK48 1-371)
chain: MNMDKETEQTLNYLPLGQSDPFGNGNEGTIGDFLGRYCNNPQEISPLTLQSFSLNSQISENFPISGGIRFPPYPGQFGSDREFGSQPTTQESNKSSLLDPDSVSDRVHTTKSNSRKRKSIPSGNGKESPASSSLTASNSKVSGENGGSKGGKRSKQDVAGSSKNGVEKCDSKGDNKDDAKPPEAPKDYIHVRARRGQATDSHSLAERARREKISERMTLLQDLVPGCNRITGKAVMLDEIINYVQSLQRQVEFLSMKLATVNPRMEFNANASLSTEMIQPGESLTQSLYAMACSEQRLPSAYYSLGKNMPRFSDTQFPSNDGFVHTETPGFWENNDLQSIVQMGFGDILQQQSNNNNNNCSEPTLQMKLEP
modifications: S35 labelled
binding [2]: no binding

B10: nYFP-CIB4 (N-terminal half of YFP fused to CIB4) (protein, UniProt Q6NKN9 1-366)
chain: MGGESNEGGEMGFKHGDDESGGISRVGITSMPLYAKADPFFSSADWDPVVNAAAAGFSSSHYHPSMAMDNPGMSCFSHYQPGSVSGFAADMPASLLPFGDCGGGQIGHFLGSDKKGERLIRAGESSHEDHHQVSDDAVLGASPVGKRRLPEAESQWNKKAVEEFQEDPQRGNDQSQKKHKNDQSKETVNKESSQSEEAPKENYIHMRARRGQATNSHSLAERVRREKISERMRLLQELVPGCNKITGKAVMLDEIINYVQSLQQQVEFLSMKLATVNPEINIDIDRILAKDLLQSRDRNTPTLGLNPFAGFQGNIPNLSATTNPQYNPLPQTTLESELQNLYQMGFVSNPSTMSSFSPNGRLKPEL
binding [1]: binds

Continued, values first:

binding [2]: no binding
B3: CIL1 (At1g68920; CIB1 Like protein), S35-labelled, in vitro translated (protein, UniProt Q9CAA9 1-486)
chain: MDLSAKDEFSAEKRNPDNYDSVNNPSGDWRVDSYPSENLISAGPASCSPSQMMDSFGQTLWYDPTSVQAVGYAGFNGGNASSSSFRGSIDRSLEMGWNLPNLLPPKGNGLFLPNASSFLPPSMAQFPADSGFIERAARFSLFSGGNFSDMVNQPLGNSEAIGLFLQGGGTMQGQCQSNELNVGEPHNDVSVAVKESTVRSSEQAKPNVPGSGNVSEDTQSSGGNGQKGRETSSNTKKRKRNGQKNSEAAQSHRSQQSEEEPDNNGDEKRNDEQSPNSPGKKSNSGKQQGKQSSDPPKDGYIHVRARRGQATNSHSLAERVRREKISERMKFLQDLVPGCNKVTGKAVMLDEIINYVQSLQRQVEFLSMKLATVNPQMDFNLEGLLAKDALQLRAGSSSTTPFPPNMSMAYPPLPHGFMQQTLSSIGRTITSPLSPMNGGFKRQETNGWEGDLQNVIHINYGAGDVTPDPQAAATASLPAANMKVEP
modifications: S35 labelled

binding [1]: binds | binding [5]: binds
B5: nYFP-CIB5 (N-terminal half of YFP fused to CIB5) (protein, UniProt Q9C670 1-390)
chain: B4 chain

binding [2]: binds
B7: CIB2 (At5g48560), S35-labelled, in vitro translated (protein, UniProt Q9FJL4 1-498)
chain: B8 chain
modifications: S35 labelled
